# PubChem BioAssay AID624296 (National Center for Advancing Translational Sciences (NCATS), 2012)
# Where “and” joins values, the source holds several entries; their conditions need not be identical. Equal values may be shown once. Among all 350,000 compounds or so, about 9,900 (2.8%) were called active. The shares of active, inactive and inconclusive entries below differ from those in the screen. Calls come from the whole dose curve; as a rule, active = well fitted activation curve with a large enough effect; inconclusive = small, poorly fitted or top-dose-only effect; inactive = no such curve, though single readings can be large or run the other way. Potencies beside an inconclusive call are fits to weak or partial responses and may not hold up.
# Assay: A quantitative high throughput screen for small molecules that induce DNA re-replication in MCF 10a normal breast cells. Note: nearly all actives have a fitted effect of over 50% in size.
# Conditions: MCF 10A DNA re-replication, Hoechst nuclear intensity, 48 h; series mostly up to 46.1 µM
# Potency is the fitted concentration of half-maximal effect; tags give direction and shape of the fitted curve.
row,Compound,Potency
1,O=[N+]([O-])c1ccc(-c2ccc(/C=N/Nc3nc(N4CCCC4)nc(N4CCCC4)n3)o2)cc1,"inconclusive: 25.9 µM [activator, single point]"
2,CC[C@H]1OC(=O)[C@H](C)[C@@H](O[C@H]2C[C@@](C)(OC)[C@@H](O)[C@H](C)O2)[C@H](C)[C@@H](O[C@@H]2O[C@H](C)C[C@H](N(C)C)[C@H]2O)[C@](C)(O)C[C@@H](C)CN(C)[C@H](C)[C@@H](O)[C@]1(C)O,"inconclusive: 18.4 µM [activator, partial curve, poor fit]"
3,Cc1ccc(OCC(=O)c2cc(C)n(CC(F)(F)F)c2C)c([N+](=O)[O-])n1,"inconclusive: 29.1 µM [activator, single point]"
4,Cc1cccc(OCC(=O)NNC(=O)Cn2c(=O)cnc3ccccc32)c1,inactive
5,Cn1nc(-c2ccc(Cl)cc2)c2cc(C(=O)N3CCOCC3)sc21,inactive
6,COc1ccc(NC(=S)/N=C(\N)Nc2nc(C)c3ccccc3n2)cc1,"inconclusive: 0.0046 µM [activator, full curve, poor fit]"
7,COc1ccc(-c2cc(C(F)(F)F)nc(NC3CCCC3)n2)cc1OC,"inconclusive: 18.4 µM [activator, partial curve, poor fit]"
8,COc1ccc(Cl)cc1S(=O)(=O)N1CCCC(C(=O)NCCc2ccccc2)C1 (stereo not given),"inconclusive: 14.6 µM [activator, partial curve, poor fit]"
9,O=c1c2cc(N3CCOCC3)ccc2[nH]c(=S)n1CCCN1CCCCCC1,inactive
10,Clc1ccc(C2CC(c3cccs3)n3ncnc3N2)cc1 (stereo not given),"inconclusive: 29.1 µM [activator, single point]"
11,CSc1ccc(CN2CCc3c([nH]c4ccccc34)C2)cc1,"inconclusive: 8.2 µM [activator, partial curve]"
12,COc1nc(-c2cnccn2)sc1C,inactive
13,CC(C)(C)OC(=O)N(CCc1ccccc1)Cc1ccccc1OCc1cccc(NC(=O)C2CC2)c1,"inconclusive: 20.6 µM [activator, single point]"
14,COc1ccc(-c2noc(CCC(=O)N3CCN(c4cccc(C(F)(F)F)c4)CC3)n2)cc1,"inconclusive: 20.6 µM [activator, single point]"
15,CCN(Cc1ccc(Cl)s1)C(=O)c1cccc(OCc2c(C)noc2C)c1,"inconclusive: 16.4 µM [activator, partial curve, poor fit]"
16,COc1cccc(OC)c1OCc1cc(C2C3CCCC=C3C(C#N)=C(N)C2(C#N)C#N)c(C)cc1C (stereo not given),active: 12.6 µM
17,CCn1c(SC)nnc1-c1sc2cc(Cl)ccc2c1Cl,"inconclusive: 13 µM [activator, partial curve, poor fit]"
18,COc1ccc(C(C)=O)cc1COc1ccc(Cl)c(C)c1,"inconclusive: 23.1 µM [activator, single point]"
19,Cc1cc(C(=O)COc2cccc(-n3cnnn3)c2)c(C)n1-c1ccccc1,"inconclusive: 16.4 µM [activator, single point]"
20,O=C(CCc1n[nH]c(=O)[nH]c1=O)N1CCCCC1,"inconclusive: 2.91 µM [activator, partial curve, poor fit]"
21,COc1ccccc1-n1c(Cc2cccs2)n[nH]c1=S,"inconclusive: 6.51 µM [activator, single point]"
22,Cc1ccc(NC(=O)c2ccc([N+](=O)[O-])o2)cc1C,active: 9.2 µM

row,Compound,Potency
1,Cc1ccc(S(=O)(=O)c2nc(Nc3nccs3)sc2Cl)cc1,"inconclusive: 18.4 µM [activator, partial curve]"
2,CCCc1cc(=O)[nH]c(SCC(=O)c2cc(C)n(CCOC)c2C)n1,inactive
3,O=C(C1=C[C@@H](C2CCCCC2)C[C@@H](OCCCCO)O1)N1CCN(Cc2ccccc2)CC1,inactive
4,CC(=O)CSc1nc(-c2ccccc2)c(-c2ccccc2)o1,inactive
5,CCN(CC(=O)Nc1ccccc1OC)C(=O)C1CCCC1,inactive
6,NS(=O)(=O)OCCCc1ccccc1,"inconclusive: 0.231 µM [activator, full curve, poor fit]"
7,O=C(CSc1ccc(Cl)cc1)N/N=C/c1ccc([N+](=O)[O-])o1,active: 9.2 µM
8,OCC1(CCCc2ccccc2)CCN(Cc2cnc(N3CCOCC3)s2)CC1,"inconclusive: 29.1 µM [activator, single point]"
9,N#CCc1nn(-c2ccc(Cl)cc2)c(N)c1C#N,"inconclusive: 16.4 µM [activator, single point]"
10,CCN1C(=O)c2cccc3c(S(=O)(=O)N4CCC(C)CC4)ccc1c23,active: 10.3 µM
11,CCOC(=O)c1[nH]c2cc3c(cc2c1NC(=O)CN1CCC(C)CC1)OCO3,inactive
12,CN1CCCC(OC(=O)c2ccccc2Br)C1 (stereo not given),inactive
13,Cc1ccc(NC(=O)c2nsc(Cl)c2Cl)cc1,"inconclusive: 20.6 µM [activator, partial curve, poor fit]"
14,O=C1S/C(=C\C=C\c2ccco2)C(=O)N1c1ccc(O)cc1,"inconclusive: 16.4 µM [activator, partial curve, poor fit]"
15,CSC1=NSC2=NC(=O)/C(=C/c3coc4ccc(O)cc4c3=O)C(=N)N12,"inconclusive: 23.1 µM [activator, single point]"
16,COCCCNc1oc(COc2ccc(Cl)cc2Cl)nc1C#N,"inconclusive: 3.66 µM [activator, partial curve, poor fit]"
17,CCCCc1nc(SCC(=O)N2CCCC2)c2c(=O)n(C)c(=O)n(C)c2n1,inactive
18,COc1cc2c(cc1NC(=S)Nc1cccc(C)c1)oc1ccccc12,"inconclusive: 10 µM [activator, partial curve]"
19,CCOC(=O)c1c(C)oc2ccc(OCc3cc(C(=O)OC)oc3C)cc12,active: 6.51 µM
20,COc1cccc2sc(Nc3nc(C)c(C(C)=O)s3)nc12,"inconclusive: 16.4 µM [activator, single point]"
21,Cc1ccc2c(c1)Oc1ccc(NC(=O)CCCl)cc1C(=O)N2,"inconclusive: 3.66 µM [activator, full curve, poor fit]"
22,Cc1cc(C(=O)NC2CCCCC2)c(C)n1-c1ccc(F)cc1,"inconclusive: 10.3 µM [activator, partial curve]"

row,Compound,Potency
1,N/C(=N\OC(=O)C12CC3CC(CC(C3)C1)C2)c1ccncc1,"inconclusive: 1.3 µM [activator, partial curve, poor fit]"
2,O=C(NN1C(=O)c2ccccc2NC1c1ccc([N+](=O)[O-])o1)c1ccc(Br)cc1 (stereo not given),active: 9.2 µM
3,COc1ccccc1N1CCN(C(=O)C2CCCN(S(=O)(=O)c3ccc4c(c3)oc(=O)n4C)C2)CC1 (stereo not given),inactive
4,Cc1ccc2c(c1)N(CC(=O)OC(CC(C)C)C(=O)NC1CCCC1)C(=O)CO2 (stereo not given),"inconclusive: 6.51 µM [activator, single point]"
5,N#C/C(=N\Nc1ccc(Cl)c(Cl)c1)C(=O)C1CC1,"inconclusive: 6.51 µM [activator, full curve, poor fit]"
6,CC1(C)c2ccccc2N2CC(=O)N[C@@]21/C=C/C=C/c1ccccc1,"inconclusive: 29.1 µM [activator, single point]"
7,Cc1ccc(S(=O)(=O)N(C)CC(=O)Nc2cccc(C)n2)cc1,"inconclusive: 5.8 µM [activator, single point]"
8,O=C(O)CCC(=O)N1CCN(c2nc(-c3ccccc3)c3ccccc3n2)CC1,active: 20.6 µM
9,Cc1ccccc1-c1cc(C(=O)N2CCCC2)c2ccccc2n1,"inconclusive: 29.1 µM [activator, single point]"
10,Cc1cccc(C(=O)NCC(=O)N2CCN(S(=O)(=O)c3ccc4c(c3)OCCO4)CC2)c1,inactive
11,CCN=C1S/C(=C\c2sccc2C)C(=O)N1CC,inactive
12,CCc1c(C#N)c(SCCC(=O)Nc2cccc(OC)c2)nc2c1C(=O)CC(C)(C)C2,"inconclusive: 23.1 µM [activator, single point]"
13,CCn1cc(CN2CCCC(CNS(=O)(=O)c3ccc(OC)cc3)C2)cn1 (stereo not given),inactive
14,C[C@H](CO)N1C[C@H](C)[C@@H](CN(C)C(=O)Nc2ccc(C(F)(F)F)cc2)Oc2c(NC(=O)Nc3ccccc3)cccc2C1=O,"inconclusive: 0.13 µM [activator, full curve, poor fit]"
15,O=C(CC1C(=O)NCCN1Cc1ccccc1C(F)(F)F)NCCn1cccn1 (stereo not given),"inconclusive: 32.6 µM [activator, partial curve, poor fit]"
16,COc1ccc(NC(=O)CSC2=C(C#N)C(c3ccco3)C(C(=O)Nc3nc4ccccc4s3)=C(C)N2)cc1 (stereo not given),"inconclusive: 3.26 µM [activator, partial curve, poor fit]"
17,CN[C@H]1CC[C@@H](c2ccc(Cl)c(Cl)c2)c2ccccc21,"inconclusive: 18.8 µM [activator, partial curve] and inconclusive: 29.1 µM [activator, single point] and inconclusive: 164 nM [activator, full curve, poor fit]"
18,S=C(N/N=C1\CCc2ccccc21)NC1CCCCC1,"inconclusive: 7.31 µM [activator, partial curve, poor fit]"
19,CC(NCCCOc1cccc2ccccc12)c1ccccc1 (stereo not given),"inconclusive: 25.9 µM [activator, single point]"
20,COCCCNC(=O)c1c(N)n(-c2ccc(S(N)(=O)=O)cc2)c2nc3ccccc3nc12,active: 7.31 µM
21,O=C(COc1cccc2ccccc12)NNC(=O)Nc1ccccc1,"inconclusive: 29.1 µM [activator, single point]"
